The whole screen tested about 48,000 compounds, of which about 450 (0.94%) were called active. The inconclusive results got no clear call from the source; some entries with a clear call stand among them for comparison. Calls follow the shape of the dose curve; as a rule, active = well fitted inhibition curve with a large enough effect; inconclusive = small, poorly fitted or top-dose-only effect; inactive = no such curve, though single readings can be large or run the other way. Potencies of inconclusive entries are doubtful fits and often do not repeat.
experiment: Primary qHTS for Identification of Small Molecule Inhibitors of Huntingtin Promoter Activity; conditions: HEK293 HTT promoter firefly luciferase reporter (activity 0% = vehicle and -100% = no light), 24 h; activity change, negative = inhibition: at 57.5 µM (top of the series); also: nearly all actives have a fitted effect of over 50% in size
In short: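 Luminescence was read after Dual-Glo reagent and a 10 min room-temperature incubation. Values were normalized to vehicle (0% activity) and zero RLU (-100% activity). Reporter HEK293 cells had been exposed to compounds (up to 57.5 uM final) for 24 h.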
Potency is read from the fitted curve at half-maximal effect; tags tell the direction and shape of the fitted curve.

SMILES | Potency | activity change, negative = inhibition
Nc1nc(Cl)nc2c1ncn2[C@@H]1O[C@H](CO)[C@@H](O)[C@H]1F | inconclusive: 1.93 µM [inhibitor, full curve] | –
CCc1ccc(C2CC(=O)c3c([nH]c(C(=O)OCCOc4ccccc4)c3C)C2)cc1 (stereo unspecified) | inconclusive: 10 µM [inhibitor, partial curve] | –
CC(=O)Nc1cc(C(=O)NCc2ccc(F)cc2)ccc1Sc1ccc(F)cc1 | inconclusive: 39.8 µM [inhibitor, single point] | –
CCCCN(C(=O)C1CCC(CNS(=O)(=O)c2cccc3nsnc23)CC1)c1ccccc1 (stereo unspecified) | inconclusive: 20 µM [inhibitor, partial curve, poor fit] | –
CC(=O)Nc1ccc(NC(=O)CN(C)S(=O)(=O)c2ccc3c(c2)CCCC(=O)N3)cc1 | – | inactive: -7.52%
COc1ccccc1C(=O)Nc1nc2n(n1)C(c1ccc(F)cc1)C=C(c1ccc(Cl)cc1)N2 (stereo unspecified) | inconclusive: 22.4 µM [inhibitor, partial curve, poor fit] | –
CCc1ccc(CNC(=O)C2CCCN(c3nnc(C)c4c(C)n(-c5ccccc5)nc34)C2)cc1 (stereo unspecified) | – | inactive: -15.3%
COc1ccccc1C(=O)Nc1ccc2nc(SCC(=O)N3CCCc4ccccc43)sc2c1 | inconclusive: 12.6 µM [inhibitor, partial curve] | –
COc1ccc(OC)c(NC(=O)C2CCCN(S(=O)(=O)c3ccc4c(c3)CCCC(=O)N4)C2)c1 (stereo unspecified) | inconclusive: 31.6 µM [inhibitor, partial curve, poor fit] | –
O=S1(=O)c2ccccc2N(Cc2cccc(F)c2)c2ccccc21 | inconclusive: 31.6 µM [inhibitor, single point] | –
COc1ccc(NC(=O)c2ccco2)cc1NC(=O)c1cc(Cl)ccc1OC | inconclusive: 39.8 µM [inhibitor, single point] | –
CCCCN=C(N)N=C(N)N | – | inactive: -4.42%
O=C(CN1CCCN(Cc2cccc(Cl)c2)S1(=O)=O)Nc1ccc2c(c1)OCCO2 | inconclusive: 39.8 µM [inhibitor, single point] | –
COc1cccc2c1C(=O)c1c(O)c3c(c(O)c1C2=O)C[C@@](O)(C(=O)CO)C[C@@H]3O[C@H]1C[C@H](N)[C@@H](O)[C@H](C)O1 | inconclusive: 0.611 µM [inhibitor, full curve] | –
COc1ccc(CCNC(=O)CCCn2c(=O)c3ccccc3n(Cc3ccccc3)c2=O)cc1OC | inconclusive: 20 µM [inhibitor, partial curve, poor fit] | –
COc1cccc(CNC(=O)C(=O)NCC(c2cccs2)S(=O)(=O)c2ccccc2)c1 (stereo unspecified) | inconclusive: 28.2 µM [inhibitor, single point] | –
CCC(C)CCCCC(=O)N[C@@H](CCN)C(=O)NC(C(=O)N[C@H](CCN)C(=O)N[C@@H]1CCNC(=O)C([C@@H](C)O)NC(=O)[C@@H](CCN)NC(=O)[C@@H](CCN)NC(=O)[C@@H](CC(C)C)NC(=O)[C@H](Cc2ccccc2)NC(=O)[C@H](CCN)NC1=O)[C@@H](C)O (stereo partly specified) | – | inactive: -4.67%
Cc1c2cnn(-c3ccccc3)c(=O)c2c(C)n1C(C)C(=O)Nc1ccccc1C(F)(F)F (stereo unspecified) | inconclusive: 39.8 µM [inhibitor, single point] | –

SMILES | Potency | activity change, negative = inhibition
CCOC(=O)CC(NC(=O)Cn1nnc(-c2ccccc2Cl)n1)c1ccc(OC)cc1 (stereo unspecified) | inconclusive: 39.8 µM [inhibitor, single point] | –
COc1ccc(-c2nnc(C3CCN(S(=O)(=O)c4cccc(Cl)c4)CC3)o2)cc1 | inconclusive: 17.8 µM [inhibitor, partial curve] | –
COc1ccc(OCCn2c(NC(=O)c3ccc(OC)cc3)nc3ccccc32)cc1 | – | inactive: -17.3% [at 11.5 µM]
CCOc1ccc(-c2nnc(SCC(=O)Nc3cccc(C#N)c3)o2)cc1 | inconclusive: 3.98 µM [inhibitor, full curve] | –
CC1CCN(C(=O)Cn2c(-c3cccs3)cc3cc(Cl)ccc32)CC1 | inconclusive: 39.8 µM [inhibitor, single point] | –
COc1cccc(NC(=O)Nc2ccc3c(c2)N(C)C(=O)c2ccccc2S3)c1 | inconclusive: 28.2 µM [inhibitor, single point] | –
Cc1ccc(C)c(NC(=O)C(CC(C)C)N2Cc3ccccc3C2=O)c1 (stereo unspecified) | inconclusive: 39.8 µM [inhibitor, single point] | –
O=C(c1ccc(Cl)cc1)n1nc(-c2cccnc2)nc1NCc1ccc(F)cc1 | – | inactive: -12.9%
CC(=O)c1cccc(NC(=O)c2ccc3nc(Cc4ccccc4)oc3c2)c1 | inconclusive: 31.6 µM [inhibitor, partial curve, poor fit] | –
Cc1ccc2onc(CC(=O)N3CCN(c4cccc(Cl)c4)CC3)c2c1 | inconclusive: 31.6 µM [inhibitor, partial curve, poor fit] | –
COc1ccc(NC(=O)Cn2c(=O)oc3cc(S(=O)(=O)N4CCCCCC4)ccc32)cc1OC | inconclusive: 14.1 µM [inhibitor, partial curve, poor fit] | –
CCN(Cc1ccccc1)S(=O)(=O)c1cc(Br)cc2c1N(C(=O)C1CC1)CC2 | inconclusive: 39.8 µM [inhibitor, single point] | –
Cc1ccc(-n2nc(C)c3c(C(F)(F)F)cc(-c4cccnc4)nc32)cc1Cl | – | inactive: -6.28%
CC1CCN(C(=O)CSc2nc(-c3ccc(F)cc3)cc(C(F)(F)F)n2)CC1 | inconclusive: 31.6 µM [inhibitor, single point] | –
CCOC(=O)c1sc(NC(=O)c2c(-c3ccccc3)c(-c3ccccc3)nn(C)c2=O)nc1C | inconclusive: 0.178 µM [inhibitor, partial curve, poor fit] | –
CCc1ccc(Nc2nc3ccccc3nc2NS(=O)(=O)c2ccccc2)cc1 | inconclusive: 35.5 µM [inhibitor, single point] | –
O=C(Cn1c(=O)nc(-c2ccccc2)c2ccccc21)Nc1ccc(Cl)cc1F | inconclusive: 35.5 µM [inhibitor, single point] | –
CCCCOC(=O)c1ccc(NC(=O)c2sc3nc(C)cc(C)c3c2N)cc1 | inconclusive: 3.55 µM [inhibitor, partial curve, poor fit] | –
